T1: intermediate-affinity hIL-2 receptor (IL-2Rβγ) on TF1+IL-2Rβ cells (human, UniProt P14784 27-551; P31785 23-369)
T1 sequence 1: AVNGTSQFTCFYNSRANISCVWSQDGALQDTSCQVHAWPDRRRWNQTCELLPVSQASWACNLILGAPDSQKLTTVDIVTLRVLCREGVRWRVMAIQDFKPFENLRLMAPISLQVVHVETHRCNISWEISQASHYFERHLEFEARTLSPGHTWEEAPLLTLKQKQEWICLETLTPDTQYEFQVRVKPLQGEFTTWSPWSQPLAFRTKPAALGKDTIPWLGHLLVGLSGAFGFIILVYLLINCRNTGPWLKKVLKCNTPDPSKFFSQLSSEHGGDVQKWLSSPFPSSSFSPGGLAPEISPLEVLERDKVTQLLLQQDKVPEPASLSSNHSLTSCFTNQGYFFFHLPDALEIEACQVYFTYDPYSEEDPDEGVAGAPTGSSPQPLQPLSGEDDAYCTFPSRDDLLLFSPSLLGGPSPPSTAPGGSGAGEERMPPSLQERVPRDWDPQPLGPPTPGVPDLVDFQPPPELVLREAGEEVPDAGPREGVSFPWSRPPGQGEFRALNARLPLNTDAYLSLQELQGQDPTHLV
T1 sequence 2: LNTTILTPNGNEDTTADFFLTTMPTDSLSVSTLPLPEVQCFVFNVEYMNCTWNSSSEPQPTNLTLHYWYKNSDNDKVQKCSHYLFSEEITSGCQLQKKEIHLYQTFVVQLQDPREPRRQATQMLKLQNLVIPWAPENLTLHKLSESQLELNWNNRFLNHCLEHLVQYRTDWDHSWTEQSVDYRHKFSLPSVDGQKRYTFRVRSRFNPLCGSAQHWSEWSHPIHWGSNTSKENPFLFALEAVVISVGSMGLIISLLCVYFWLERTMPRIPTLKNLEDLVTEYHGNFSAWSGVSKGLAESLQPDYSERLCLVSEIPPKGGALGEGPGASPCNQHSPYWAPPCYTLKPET

T2: high-affinity hIL-2 receptor (IL-2Rαβγ) on NK-92 cells (human, UniProt P01589 22-272; P14784 27-551; P31785 23-369)
T2 sequence 1: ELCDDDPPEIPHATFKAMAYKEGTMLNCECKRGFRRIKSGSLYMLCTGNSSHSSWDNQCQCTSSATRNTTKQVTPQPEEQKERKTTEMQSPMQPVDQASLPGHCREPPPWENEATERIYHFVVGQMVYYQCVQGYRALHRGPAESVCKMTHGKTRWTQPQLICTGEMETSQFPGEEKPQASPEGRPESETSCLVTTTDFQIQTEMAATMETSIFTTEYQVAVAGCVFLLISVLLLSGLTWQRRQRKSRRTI
T2 sequence 2: T1 sequence 1
T2 sequence 3: T1 sequence 2

B1: 1H3-hIgG4-L6-hIL-2 (R38D/I92D) (other)
heavy: EVQLVESGGGLVQPGRSLKLSCAVSGFTFSDYAMAWVRQAPKKGLEWVATISYDGSRTYYRDSVKGRFTISRDNAKITLYLQMDSLRSEDTATYYCARHGSGYFDYWGQGVMVTVSSASTKGPSVFPLAPCSRSTSESTAALGCLVKDYFPEPVTVSWNSGALTSGVHTFPAVLQSSGLYSLSSVVTVPSSSLGTKTYTCNVDHKPSNTKVDKRV[not shown - about 350 residues with a human IgG4 Fc and changes]
light: DTVLTQSPALAVSPGERVTISCRASESVRTGVHWYQQKPGQQPKLLIYGASNLESGVPARFSGSGSGTDFTLTIDPVEADDTATYFCQQSWNDPFTFGSGTKLEIKRTVAAPSVFIFPPSDEQLKSGTASVVCLLNNFYPREAKVQWKVDNALQSGNSQESVTEQDSKDSTYSLSSTLTLSKADYEKHKVYACEVTHQGLSSPVTKSFNRGEC
B2: 1H3-hIgG4-L6-hIL-2 (R38E/I92D) (other)
heavy: EVQLVESGGGLVQPGRSLKLSCAVSGFTFSDYAMAWVRQAPKKGLEWVATISYDGSRTYYRDSVKGRFTISRDNAKITLYLQMDSLRSEDTATYYCARHGSGYFDYWGQGVMVTVSSASTKGPSVFPLAPCSRSTSESTAALGCLVKDYFPEPVTVSWNSGALTSGVHTFPAVLQSSGLYSLSSVVTVPSSSLGTKTYTCNVDHKPSNTKVDKRV[not shown - about 350 residues with a human IgG4 Fc and changes]
light: B1 light
B3: 1H3-hIgG4-L6-hIL-2 (F42H/I92D) (other)
heavy: EVQLVESGGGLVQPGRSLKLSCAVSGFTFSDYAMAWVRQAPKKGLEWVATISYDGSRTYYRDSVKGRFTISRDNAKITLYLQMDSLRSEDTATYYCARHGSGYFDYWGQGVMVTVSSASTKGPSVFPLAPCSRSTSESTAALGCLVKDYFPEPVTVSWNSGALTSGVHTFPAVLQSSGLYSLSSVVTVPSSSLGTKTYTCNVDHKPSNTKVDKRV[not shown - about 350 residues with a human IgG4 Fc and changes]
light: B1 light
B4: 1H3-hIgG4-L6-hIL-2 (T3A/D20A/R38E) (other)
heavy: EVQLVESGGGLVQPGRSLKLSCAVSGFTFSDYAMAWVRQAPKKGLEWVATISYDGSRTYYRDSVKGRFTISRDNAKITLYLQMDSLRSEDTATYYCARHGSGYFDYWGQGVMVTVSSASTKGPSVFPLAPCSRSTSESTAALGCLVKDYFPEPVTVSWNSGALTSGVHTFPAVLQSSGLYSLSSVVTVPSSSLGTKTYTCNVDHKPSNTKVDKRV[not shown - human IgG4 Fc with S228P (EU numbers)]SGGGGSAPASSSTKKTQLQLEHLLLALQMILNGINNYKNPKLTEMLTFKFYMPKKATELKHLQCLEEELKPLEEVLNLAQSKNFHLRPRDLISNINVIVLELKGSETTFMCEYADETATIVEFLNRWITFCQSIISTLT
light: B1 light
B5: 1H3-hIgG4-L6-hIL-2 (D20A/R38E/C125A) (other)
heavy: EVQLVESGGGLVQPGRSLKLSCAVSGFTFSDYAMAWVRQAPKKGLEWVATISYDGSRTYYRDSVKGRFTISRDNAKITLYLQMDSLRSEDTATYYCARHGSGYFDYWGQGVMVTVSSASTKGPSVFPLAPCSRSTSESTAALGCLVKDYFPEPVTVSWNSGALTSGVHTFPAVLQSSGLYSLSSVVTVPSSSLGTKTYTCNVDHKPSNTKVDKRV[not shown - human IgG4 Fc with S228P (EU numbers)]SGGGGSAPTSSSTKKTQLQLEHLLLALQMILNGINNYKNPKLTEMLTFKFYMPKKATELKHLQCLEEELKPLEEVLNLAQSKNFHLRPRDLISNINVIVLELKGSETTFMCEYADETATIVEFLNRWITFAQSIISTLT
light: B1 light
B6: 1H3-hIgG4-L6-hIL-2 (T3A/D20A/R38E/C125A) (other)
heavy: EVQLVESGGGLVQPGRSLKLSCAVSGFTFSDYAMAWVRQAPKKGLEWVATISYDGSRTYYRDSVKGRFTISRDNAKITLYLQMDSLRSEDTATYYCARHGSGYFDYWGQGVMVTVSSASTKGPSVFPLAPCSRSTSESTAALGCLVKDYFPEPVTVSWNSGALTSGVHTFPAVLQSSGLYSLSSVVTVPSSSLGTKTYTCNVDHKPSNTKVDKRV[not shown - human IgG4 Fc with S228P (EU numbers)]SGGGGSAPASSSTKKTQLQLEHLLLALQMILNGINNYKNPKLTEMLTFKFYMPKKATELKHLQCLEEELKPLEEVLNLAQSKNFHLRPRDLISNINVIVLELKGSETTFMCEYADETATIVEFLNRWITFAQSIISTLT
light: B1 light
B7: 1H3-hIgG1-L6-hIL-2 (T3A/D20A/R38E) (other)
heavy: EVQLVESGGGLVQPGRSLKLSCAVSGFTFSDYAMAWVRQAPKKGLEWVATISYDGSRTYYRDSVKGRFTISRDNAKITLYLQMDSLRSEDTATYYCARHGSGYFDYWGQGVMVTVSS[not shown - human IgG1 constant region]SGGGGSAPASSSTKKTQLQLEHLLLALQMILNGINNYKNPKLTEMLTFKFYMPKKATELKHLQCLEEELKPLEEVLNLAQSKNFHLRPRDLISNINVIVLELKGSETTFMCEYADETATIVEFLNRWITFCQSIISTLT
light: B1 light
B8: 1H3-hIgG1-L6-hIL-2 (D20A/R38E/C125A) (other)
heavy: EVQLVESGGGLVQPGRSLKLSCAVSGFTFSDYAMAWVRQAPKKGLEWVATISYDGSRTYYRDSVKGRFTISRDNAKITLYLQMDSLRSEDTATYYCARHGSGYFDYWGQGVMVTVSS[not shown - human IgG1 constant region]SGGGGSAPTSSSTKKTQLQLEHLLLALQMILNGINNYKNPKLTEMLTFKFYMPKKATELKHLQCLEEELKPLEEVLNLAQSKNFHLRPRDLISNINVIVLELKGSETTFMCEYADETATIVEFLNRWITFAQSIISTLT
light: B1 light
B9: 1H3-hIgG1-L6-hIL-2 (H16A) (other)
heavy: EVQLVESGGGLVQPGRSLKLSCAVSGFTFSDYAMAWVRQAPKKGLEWVATISYDGSRTYYRDSVKGRFTISRDNAKITLYLQMDSLRSEDTATYYCARHGSGYFDYWGQGVMVTVSS[not shown - about 450 residues with a human IgG1 Fc and changes]
light: B1 light
B10: 1H3-hIgG1-L6-hIL-2 (F42A) (other)
heavy: EVQLVESGGGLVQPGRSLKLSCAVSGFTFSDYAMAWVRQAPKKGLEWVATISYDGSRTYYRDSVKGRFTISRDNAKITLYLQMDSLRSEDTATYYCARHGSGYFDYWGQGVMVTVSS[not shown - about 450 residues with a human IgG1 Fc and changes]
light: B1 light
B11: 1H3-hIgG1-L6-hIL-2 (H16A/F42A) (other)
heavy: EVQLVESGGGLVQPGRSLKLSCAVSGFTFSDYAMAWVRQAPKKGLEWVATISYDGSRTYYRDSVKGRFTISRDNAKITLYLQMDSLRSEDTATYYCARHGSGYFDYWGQGVMVTVSS[not shown - about 450 residues with a human IgG1 Fc and changes]
light: B1 light
B12: C51E6-5-hIgG4-LE-df-hIL-2 (T3A/D20A/R38E/C125A) (other)
heavy: QVQLVQSGSELKKPGASVKVSCKASGYSLYGTSMHWVRQAPGQGLEWMGYISPFTGRATYAQGFTGRFVFSLDTSVSTAYLQISSLKAEDTAVYYCARDYDYRYYYAMDYWGQGTTVTVSSASTKGPSVFPLAPCSRSTSESTAALGCLVKDYFPEPVTVSWNSGALTSGVHTFPAVLQSSGLYSLSSVVTVPSSSLGTKTYTCNVDHKPSNTKVDKRV[not shown - human IgG4 Fc with changes]APASSSTKKTQLQLEHLLLALQMILNGINNYKNPKLTEMLTFKFYMPKKATELKHLQCLEEELKPLEEVLNLAQSKNFHLRPRDLISNINVIVLELKGSETTFMCEYADETATIVEFLNRWITFAQSIISTLT
light: EIVLTQSPDFQSVTPKEKVTITCTASESVPPQFLHWYQQKPDQSPKLLIYASRERASGVPSRFSGSGSGTDFTLTINSLEAEDAATYYCHQFHRSPLTFGGGTKLEIKRTVAAPSVFIFPPSDEQLKSGTASVVCLLNNFYPREAKVQWKVDNALQSGNSQESVTEQDSKDSTYSLSSTLTLSKADYEKHKVYACEVTHQGLSSPVTKSFNRGEC
B13: C51E6-5-hIgG4-LAGA-df-hIL-2 (T3A/D20A/R38E/C125A) (other)
heavy: QVQLVQSGSELKKPGASVKVSCKASGYSLYGTSMHWVRQAPGQGLEWMGYISPFTGRATYAQGFTGRFVFSLDTSVSTAYLQISSLKAEDTAVYYCARDYDYRYYYAMDYWGQGTTVTVSSASTKGPSVFPLAPCSRSTSESTAALGCLVKDYFPEPVTVSWNSGALTSGVHTFPAVLQSSGLYSLSSVVTVPSSSLGTKTYTCNVDHKPSNTKVDKRV[not shown - human IgG4 Fc with S228P L235A G237A (EU numbers)]APASSSTKKTQLQLEHLLLALQMILNGINNYKNPKLTEMLTFKFYMPKKATELKHLQCLEEELKPLEEVLNLAQSKNFHLRPRDLISNINVIVLELKGSETTFMCEYADETATIVEFLNRWITFAQSIISTLT
light: B12 light

target: T1, intermediate-affinity hIL-2 receptor …; assay: cell-based or functional assay

| Binder | Fold decrease from rhIL-2 (TF1 + IL-2Rβ + hPD-1) |
| --- | --- |
| B1 | ~1430 fold |
| B2 | ~1890 fold |
| B3 | ~2020 fold |
| B4 | ~9170 fold |
| B5 | 4710 fold |
| B6 | 4630 fold |
| B7 | 513 fold |
| B8 | 3340 fold |
| B9 | ~4 fold |
| B10 | ~0 fold |
| B11 | ~2 fold |
| B12 | ~1 fold |
| B13 | ~0 fold |

target: T1, intermediate-affinity hIL-2 receptor …; assay: cell-based or functional assay; remark: another data set of the same source

| Binder | Fold change from rhIL-2 (TF1 + IL-2Rβ) | Agonistic Activity (TF1 + IL-2Rβ) |
| --- | --- | --- |
| B1 | 437 fold | – |
| B2 | 296 fold | – |
| B3 | 393 fold | – |
| B4 | > 10000 fold | 70% |
| B5 | 6440 fold | 40% |
| B6 | > 10000 fold | – |
| B7 | 186 fold | 60% |
| B8 | ~2160 fold | 60% |
| B9 | ~0 fold | – |
| B10 | ~0 fold | – |
| B11 | ~0 fold | – |
| B12 | > 10000 fold | 70% |
| B13 | > 10000 fold | 60% |

target: T2, high-affinity hIL-2 receptor (IL-2Rαβγ) …; assay: cell-based or functional assay

| Binder | Fold change from rhIL-2 (NK-92) | Agonistic Activity (NK-92) |
| --- | --- | --- |
| B1 | 190 fold | – |
| B2 | ~377 fold | – |
| B3 | ~794 fold | – |
| B4 | > 10000 fold | 40% |
| B5 | > 10000 fold | 20% |
| B6 | > 10000 fold | 20% |
| B7 | 392 fold | 80% |
| B8 | ~2350 fold | 80% |
| B9 | 0 fold | – |
| B10 | 0 fold | – |
| B11 | 1 fold | – |
| B12 | 4330 fold | 80% |
| B13 | 4340 fold | 60% |

Reference: patent US20240076343A1 (CEPHALON, published 2024)
